# Measured values reported in the supplement of paper PMC13380429.
# Experiments:
# Conditions in all cases: 72 h
# [1] = tested on: Caco-2; test: cell viability relative to DMSO; higher = less toxic
# [2] = tested on: Calu-3; test: as above
# [3] = tested on: U2OS; test: as above
# [4] = tested on: Vero E6; test: as above
# [5] = tested on: HepG2; test: as above
# [6] = tested on: Caco-2; test: relative viability EC50 (midpoint between 100% and the lowest measured viability); higher = less toxic
# [7] = tested on: Calu-3; test: as above
# [8] = tested on: U2OS; test: as above
# [9] = tested on: Vero E6; test: as above
# [10] = tested on: HepG2; test: as above
# [11] = tested on: Caco-2; test: drug sensitivity score (DSS) for viability; higher = more toxic; extreme values may be limits of the assay
# [12] = tested on: Calu-3; test: as above
# [13] = tested on: U2OS; test: as above
# [14] = tested on: Vero E6; test: as above
# [15] = tested on: HepG2; test: as above
smiles,measurement,setting,value
COC(=O)[C@H](CCCNC(=N)N)NS(=O)(=O)c1ccc(C)cc1 [TAME],cell viability,[1]; 1 nM,94.4%
same,cell viability,[1]; 10 nM,108%
same,cell viability,[1]; 100 nM,104%
same,cell viability,[1]; 1000 nM,103%
same,cell viability,[1]; 10000 nM,100%
same,cell viability,[2]; 1 nM,92.7%
same,cell viability,[2]; 10 nM,98%
same,cell viability,[2]; 100 nM,89.1%
same,cell viability,[2]; 1000 nM,94.9%
same,cell viability,[2]; 10000 nM,103%
same,cell viability,[3]; 1 nM,94.9%
same,cell viability,[3]; 10 nM,97.7%
same,cell viability,[3]; 100 nM,97%
same,cell viability,[3]; 1000 nM,106%
same,cell viability,[3]; 10000 nM,103%
same,cell viability,[4]; 1 nM,95.9%
same,cell viability,[4]; 10 nM,101%
same,cell viability,[4]; 100 nM,98.7%
same,cell viability,[4]; 1000 nM,98.1%
same,cell viability,[4]; 10000 nM,108%
same,cell viability,[5]; 1 nM,102%
same,cell viability,[5]; 10 nM,97.8%
same,cell viability,[5]; 100 nM,106%
same,cell viability,[5]; 1000 nM,98.3%
same,cell viability,[5]; 10000 nM,113%
same,relative viability EC50,[6],> 10 µM
same,relative viability EC50,[7],> 10 µM
same,relative viability EC50,[8],> 10 µM
same,relative viability EC50,[9],> 10 µM
same,relative viability EC50,[10],> 10 µM
same,drug sensitivity score,[11],0
same,drug sensitivity score,[12],0
same,drug sensitivity score,[13],0
same,drug sensitivity score,[14],0
same,drug sensitivity score,[15],0
